Experimental data reported in PubChem BioAssay AID1159614 (National Center for Advancing Translational Sciences (NCATS), 2016).
About 65 (0.1%) of roughly 45,000 compounds were called active. Calls come from the whole dose curve; as a rule, active = well fitted activation curve with a large enough effect; inconclusive = small, poorly fitted or top-dose-only effect; inactive = no such curve, though single readings can be large or run the other way. The list shows a part of the results.

What follows are compounds tested against Galactocerebrosidase (Homo sapiens) (UniProt P54803) (assay: A Novel Cell-Based Assay to Identify Small Molecules for B -Galactocerebrosidase). Conditions: 145M-Twi-hGALC-G270D cells (Twitcher mouse brain line with human GALC G270D), HMU-beta-Gal fluorescence, 48 h; series mostly up to 57.5 µM; activation: at the top concentration.
UniProt P54803, sequence (P54803 whole entry, looked up): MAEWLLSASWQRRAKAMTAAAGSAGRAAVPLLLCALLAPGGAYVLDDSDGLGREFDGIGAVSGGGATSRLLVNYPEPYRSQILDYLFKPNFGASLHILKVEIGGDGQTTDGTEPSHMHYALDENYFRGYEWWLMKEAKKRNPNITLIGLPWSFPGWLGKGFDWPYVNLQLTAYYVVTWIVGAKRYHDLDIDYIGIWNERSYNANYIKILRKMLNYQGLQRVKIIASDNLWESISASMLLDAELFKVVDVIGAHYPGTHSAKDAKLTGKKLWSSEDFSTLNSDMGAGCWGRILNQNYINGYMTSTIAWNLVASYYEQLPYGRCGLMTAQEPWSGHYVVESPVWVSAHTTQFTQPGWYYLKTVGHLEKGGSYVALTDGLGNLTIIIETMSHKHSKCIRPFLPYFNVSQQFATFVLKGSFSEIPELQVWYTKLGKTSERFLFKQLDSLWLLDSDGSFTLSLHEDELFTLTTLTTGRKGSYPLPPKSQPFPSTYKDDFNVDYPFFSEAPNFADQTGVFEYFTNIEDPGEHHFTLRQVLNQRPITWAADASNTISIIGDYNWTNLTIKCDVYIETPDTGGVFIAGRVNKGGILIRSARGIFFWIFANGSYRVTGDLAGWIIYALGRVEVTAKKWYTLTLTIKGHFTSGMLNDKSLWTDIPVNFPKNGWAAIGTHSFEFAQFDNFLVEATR
Summary of the method: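 Brain-derived Twitcher mouse 145M-Twi cells stably expressing human GALC-G270D or wild-type GALC, treated live, then residual GALC activity read by fluorescence of HMU-b-Gal substrate (0.1 mM final) in citrate-phosphate buffer pH 5.2 with sodium taurocholate. Signal increase indicates enhancement.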
Note: 0% is about no effect; nearly all actives have a fitted effect of over 65% in size.

activation, inactive:
CCOC(=O)c1c(C)[nH]c(C)c1S(=O)(=O)N(C)CC(=O)Nc1cc(Cl)ccc1C -9.71%
CC1=C(C(=O)OCc2ccc(C)cc2)C(c2ccccc2F)CC(=O)N1 (centres undefined) -1.75%
Cc1ccc2c(=O)cc(C(=O)Nc3sc4c(c3C(=O)NCc3ccco3)CCC4)oc2c1 -15.4%
COc1ccc2c(c1)c(=O)c(C(=O)c1ccccc1)cn2CC(=O)Nc1ccc2c(c1)OCCO2 1.54%
COc1ccccc1NC(=O)CSc1nnc(-c2ccccc2C)o1 -19.6%
O=C(NCc1ccccc1F)C1CCN(c2nnc(-n3cccc3)s2)CC1 -19.2%
COc1cc(NC(=O)CCc2c(C)nn(-c3ccc(N4CCOCC4)nn3)c2C)cc(OC)c1OC -4.98%
COc1cccc(N2CCN(c3c4c(nc5nncn35)CCC4)CC2)c1 -8.18%
CCC1CCCCN1S(=O)(=O)c1ccc(NC(=O)c2cc(=O)c3c(C)cc(C)cc3o2)cc1 (centres undefined) -4.34%
Cc1cccc(Cn2cc3c(=O)n(CC(=O)Nc4c(C)cccc4C)nc-3c3cc(F)ccc32)c1 -4.36%
Cc1c(Cl)cccc1NC(=O)CCCn1nc(C)c2sc3ccccc3c2c1=O -8.63%
COCCCNC(=O)NC(CCC(C)C)c1c(-n2cccc2)sc2c1CCN(C)C2 (centres undefined) -17.5%
O=C(NCCN1CCN(c2ccccc2)CC1)Nc1cccc(Br)c1 -31.4%
CC1(C)CC(=O)c2cc(-c3nc(-c4ccccc4)cs3)c(=O)[nH]c2C1 -11.3%
Cc1ccc(NC(=O)C2CCN(S(=O)(=O)c3c(C)noc3C)CC2)cc1 -16.7%
CC(C)Sc1nc2sc3c(c2c(=O)n1Cc1ccccc1)CCCC3 -20.3%
CCOc1ccc(CCNC(=O)CCc2c(C)nc3c(c(C)nn3-c3ccc(C)c(C)c3)c2C)cc1 -12%
COc1ccc(Nc2nc(-c3cccc(Cl)c3)c3c(n2)-c2ccccc2OC3)cc1 -8.71%
CCOc1ccccc1CNC(=O)Cc1ccc(NC(=O)N2CCCCc3ccccc32)cc1 -17%
CCOc1ccc(NC(=O)CSc2nc3ccsc3c(=O)n2C(C)CC)cc1 (centres undefined) -10.4%
CCOc1cccc(Nc2nn(-c3ccc(OC(F)(F)F)cc3)nc2C(C)=O)c1 -12.5%
CCOC(=O)c1cnc2c(C)c(Cl)ccc2c1NCCc1ccc(OC)c(OC)c1 -5.63%
COc1ccc(-c2noc(N3CCC(C(=O)N4CCN(c5ccccc5OC)CC4)CC3)n2)cc1 -12.8%
Cc1cccc2c1-c1sc(C(=O)N3CCN(c4ccccc4)CC3)cc1CO2 -13.8%
CCCCNS(=O)(=O)c1ccc2nc(-c3cccnc3)cc(C(=O)NCCCOC(C)C)c2c1 -3.6%
Cc1cccc(NC(=O)Nc2ccc(F)cc2)n1 -7.34%
CCCCN(C)CCNC(=O)c1ccc(Cn2c(=O)[nH]c3cc(OC)c(OC)cc3c2=O)cc1 -15%
COc1ccccc1CNC(=O)c1cccc(N2CCCS2(=O)=O)c1 2.1%
Cc1ccc(N(CC(=O)NCCc2ccccc2C)S(=O)(=O)N(C)C)cc1 -14.4%
COc1ccccc1CNC(=O)Cn1c(=O)oc2cc(S(=O)(=O)N3CCCC3)ccc21 -15.9%
CCOC(=O)c1ccc(NC(=O)C2CC(=O)NC(=Nc3ccc(C)c(C)c3)S2)cc1 (centres undefined) -24.5%
CCc1nc2nc(C)cc(Nc3cc(Cl)ccc3C)n2n1 -13.9%
CCc1ccc(CNC(=O)c2ccc3c(Cl)c4c(nc3c2)CCCC4)cc1 -46.3%
COc1ccc(Br)cc1C(=O)Nc1cccc2ccc(C)nc12 -28.9%
COc1ccc(-c2noc(N(c3ccc(F)c(Cl)c3)c3nc(-c4ccc(OC)c(OC)c4)no3)n2)cc1OC 0.994%
COc1cc(-c2nc(S(=O)(=O)c3ccc(Br)cc3)c(N3CCOCC3)o2)cc(OC)c1OC -0.0144%
CC(=O)Nc1ccc(NC(=O)C2CCCN(S(=O)(=O)c3ccc4c(c3)CCCC(=O)N4)C2)cc1 (centres undefined) -2.39%
CCOC(=O)c1cnn(-c2ccc(C(=O)Nc3ccc(OC(F)(F)F)cc3)cc2)c1N -5.49%
Cc1cc(N2CCN(c3cccc(C)c3C)CC2)n2cnnc2n1 -19.4%
CCN(CC)CCSc1nnc2c3cc(F)ccc3n(CC)c2n1 3.25%
COc1cccc(C(=O)n2nc(-c3cccnc3)nc2NCc2ccc(F)cc2)c1 -12.6%
COC(=O)c1ccc2c(=O)n(CCCCCC(=O)N3CCN(c4ccc(Cl)cc4)CC3)c(=O)[nH]c2c1 -14.4%
Cc1ccc(CCNC(=O)CCn2nc(-c3ccc(C)cc3)ccc2=O)cc1 -12.7%
Cc1c(Cl)cccc1NC(=O)Nc1ccc2snnc2c1 -11.2%
Oc1c(C(c2ccccc2F)N2CCCC2)sc2nc(-c3ccco3)nn12 (centres undefined) 3.13%
O=C(NCCc1ccccc1)c1ccc(CS(=O)(=O)c2ccc(Cl)cc2)o1 -16%
CNCCC(Oc1ccccc1OC)c1ccccc1 (centres undefined) -4.02%
COc1ccccc1CNC(=O)Cn1c(=O)nc(-c2ccccc2)c2ccccc21 -6.24%
CCCSc1nnc2c(n1)OC(c1cccs1)Nc1ccc(Br)cc1-2 (centres undefined) -14.2%
Cc1cccc(S(=O)(=O)c2cn(C)c3cc(N4CCC(C)CC4)c(F)cc3c2=O)c1 -8.65%
CC(=O)Nc1ccc(NC(=O)c2cc(-c3ccc4c(c3)OCCO4)on2)cc1 13%
CCC(=O)N1c2ccc(S(=O)(=O)CCC(=O)NCc3cccc(OC)c3)cc2CC1C (centres undefined) -1.56%
CCCOc1ccccc1C1C(C(=O)Nc2ccccc2)=C(C)Nc2nnnn21 (centres undefined) -16.4%
CCCC1=Nc2cc(C(=O)NCCOC)ccc2Sc2ccccc21 -21.6%
CCc1ccc(N(CC)C(=O)Cn2cnc3sc(C)c(S(=O)(=O)N4CCN(c5ncccn5)CC4)c3c2=O)cc1 -7.5%
Cc1ccc2onc(CC(=O)N3CCN(c4ccccc4)CC3)c2c1 -9.48%
CCc1ccc(OCC(=O)Nc2ccc3c(c2)c2ccccc2n3CC)c(Br)c1 -4.97%
N#C/C(=C\c1cc(Br)c(O)c(Br)c1)c1nc2ccccc2c(=O)[nH]1 -6.73%
CCOc1ccc(NC(=O)C(C)n2c(=O)cc(C)c3c(C)nn(-c4ccccc4)c32)cc1 (centres undefined) -3.52%
COc1ccccc1O -10.4% [at 114 µM]
Cc1cccc(CSc2ccc(-c3cccs3)nn2)c1 -7.64%
O=C(NCc1ccccc1Cl)c1nnc(Cc2ccc(Cl)cc2)o1 -5.97%
COc1ccc(-c2nc(SCC(=O)NCCc3ccccc3)n[nH]2)cc1 -2.72%
COc1ccc(-c2noc(CSc3nnc(C)n3-c3ccc(C)c(C)c3)n2)c(OC)c1 -20.5%
